Read-outs that look alike come from different tables or passages of the source.
Legend:
Assay in all cases: FACS binding
[1] = target: T1, LAG-3 expressed on CHO-K1 cells (UniProt P18627 23-525)
T1 chain: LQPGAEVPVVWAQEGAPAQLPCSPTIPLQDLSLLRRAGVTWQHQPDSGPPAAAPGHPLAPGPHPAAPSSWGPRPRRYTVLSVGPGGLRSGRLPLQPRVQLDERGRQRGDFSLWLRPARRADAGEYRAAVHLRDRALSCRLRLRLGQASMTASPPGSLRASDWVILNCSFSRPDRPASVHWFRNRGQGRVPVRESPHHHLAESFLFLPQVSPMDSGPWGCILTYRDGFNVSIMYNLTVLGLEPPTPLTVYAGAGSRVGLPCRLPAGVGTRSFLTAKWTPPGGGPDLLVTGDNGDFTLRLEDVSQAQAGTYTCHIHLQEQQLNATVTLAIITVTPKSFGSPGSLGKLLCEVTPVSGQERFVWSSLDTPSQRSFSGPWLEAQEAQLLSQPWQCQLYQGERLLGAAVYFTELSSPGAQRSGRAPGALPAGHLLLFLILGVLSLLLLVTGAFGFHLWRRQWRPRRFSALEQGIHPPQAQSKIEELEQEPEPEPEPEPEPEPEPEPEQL

[2] = target: PD-L1 expressed on CHO-K1 cells (UniProt Q9NZQ7)
Chain of UniProt Q9NZQ7 (Q9NZQ7 19-290): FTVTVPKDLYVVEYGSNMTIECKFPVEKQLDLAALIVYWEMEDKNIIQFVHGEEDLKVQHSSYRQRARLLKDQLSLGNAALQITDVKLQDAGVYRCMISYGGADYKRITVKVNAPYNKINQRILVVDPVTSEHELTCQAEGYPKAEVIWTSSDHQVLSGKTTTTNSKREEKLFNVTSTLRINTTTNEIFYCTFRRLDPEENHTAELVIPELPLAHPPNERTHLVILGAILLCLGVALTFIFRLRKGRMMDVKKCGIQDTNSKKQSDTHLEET

[3] = target: T1, LAG-3 expressed on CHO-K1 cells

- EC50 [1]: 0.302 nM
- EC50 [2]: ~0.00171 nM
- EC50 [3]: 0.252 nM
B1: sdAb-LAG3-IgG4PE (Fc fusion)
chain: EVQLVESGGGLVQPGGSLRLSCAASGYTVSSYCMGWFRQAPGKGREGVSAIDSDGSVSYADSVKGRFTISKDNSKNTLYLQMNSLRAEDTAVYFCAADLCWVDQDQGEYNTWGQGTLVTVSS[letters of human IgG4 Fc with changes not shown]
